This passage reports binding signal results from paper PMC6451091.

What all share (conditions): 20 mM HEPES pH 7.9, 100 mM NaCl, 1 mM DTT, 0.2 mg/mL BSA, 0.02% Triton X-100, 2% milk, 0.4 mg/mL salmon testes DNA; 1 h; temperature not stated; high values mean tight binding; double strand, one strand shown; sequences stand for … in GCCTAGCAC…GTGCTAGGTCTTGATTCGCTTGACGCTGCTG
One test deals with PU.1 (IVT) (UniProt P17947). Briefly: protein-binding microarray (PBM).
In test [1] the target is PU.1 (endogenous, THP-1 nuclear extract) (UniProt P17947). Briefly: nuclear extract protein-binding microarray (nextPBM).
The target of test [2] is T1, FLI1 (endogenous, THP-1 nuclear extract) (UniProt Q01543).
T1 sequence: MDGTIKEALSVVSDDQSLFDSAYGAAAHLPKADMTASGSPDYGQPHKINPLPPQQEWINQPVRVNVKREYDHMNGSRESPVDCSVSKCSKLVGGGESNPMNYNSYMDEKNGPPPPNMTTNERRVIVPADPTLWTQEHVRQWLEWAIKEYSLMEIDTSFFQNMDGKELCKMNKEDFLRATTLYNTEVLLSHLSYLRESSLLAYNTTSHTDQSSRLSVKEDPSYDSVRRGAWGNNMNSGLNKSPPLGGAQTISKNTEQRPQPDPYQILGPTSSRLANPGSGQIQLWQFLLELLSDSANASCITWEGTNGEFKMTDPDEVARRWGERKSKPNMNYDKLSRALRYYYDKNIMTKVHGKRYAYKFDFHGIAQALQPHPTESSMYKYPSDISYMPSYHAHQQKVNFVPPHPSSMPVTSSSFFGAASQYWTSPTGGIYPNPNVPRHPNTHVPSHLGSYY
The test is described as above.

This is one part of the list. For part of these data: At the low end of the ranking the order means little. For part of these data: Measured with an extract: partners may take part in the binding.

As for AGAAAGAGGAAGAGCTGCCA, the figures for the binding signal (in the test with PU.1 (IVT); in test [1]; in test [2]) were 4.1 z-score, 5.22 z-score and 2.05 z-score, respectively.
Turning to AGGGTGGGGAAGTGAAGCCG, the binding signal with PU.1 (IVT) was 2.78 z-score; in test [1], 2.65 z-score; in test [2], 1.62 z-score.
As for AAAAGGAGGAACTGGTTAGG, the binding signal stood at 4.78 z-score with PU.1 (IVT), 4.8 z-score in test [1] and 1.26 z-score in test [2].
Taken in the same sequence, the figures for AGGGAGGGGAAGTGAATGCC were 3.73 z-score, 3.7 z-score and 2.09 z-score.
Taken in the same sequence, the figures for TCAAAGAGGAAGTGCAACCA were 6.02 z-score, 6.6 z-score and 3.36 z-score.
For AAGCAGAGGAAGTGCAAATA, in that order: 3.04 z-score, 2.75 z-score and 2.34 z-score.
Regarding CGAAAGGGGAGGTGCTAAAC, the binding signal is -0.362 z-score with PU.1 (IVT), -0.48 z-score in test [1] and -0.322 z-score in test [2].
For AGGATGAGGAACTGTTGATG, the binding signal with PU.1 (IVT) was determined as 3.53 z-score; in test [1], 3.15 z-score; in test [2], 1.53 z-score.
For AAAAAGAAGAAGTGAGCCGA, in that order: 4.3 z-score, 4.67 z-score and 0.819 z-score.
Taken in the same sequence, the figures for TGAACGAGGAAGTGCAACCA were 3.42 z-score, 3.7 z-score and 1.57 z-score.
For AAATAGAGGAAATGCTTTCT, in that order: 4.22 z-score, 4.39 z-score and 2.59 z-score.
Turning to GACAAGAGGAAGTGCAAGAT, the binding signal in the test with PU.1 (IVT) is 4.87 z-score; in test [1], 5.39 z-score; in test [2] it was 2.8 z-score.
Taken in the same sequence, the figures for GATAAGAGGAAGTCCTCCGT were 5.74 z-score, 6.34 z-score and 2.91 z-score.
Taken in the same sequence, the figures for ATATGGAGGAAGTGGAACCC were 3.92 z-score, 3.56 z-score and 2.35 z-score.
AGAAAGGGGAAGTGCTACAC: the binding signal was determined as 7.72 z-score with PU.1 (IVT), 7.29 z-score in test [1] and 3.26 z-score in test [2].
As to AAAAAGAGGAAGTGGTTGTC, the results for the binding signal (in the test with PU.1 (IVT); in test [1]; in test [2]) were 8.71 z-score, 7.63 z-score and 4.63 z-score, respectively.
In the case of GAAATAGGGAAGTGTGAGTT, the binding signal was 6.74 z-score with PU.1 (IVT), 6.83 z-score in test [1] and 2.72 z-score in test [2].
For CGAAAGAGGAAGTGCAACCA, in that order: 7.64 z-score, 7.07 z-score and 4.31 z-score.
With ATAAAAAGGAACTGTGCCCC, the values for the binding signal (in the test with PU.1 (IVT); in test [1]; in test [2]) were 2.4 z-score, 1.81 z-score and 0.653 z-score, respectively.
For the sequence GTGGAAGGGAAGTGGGGAAA, the binding signal with PU.1 (IVT) amounted to 2.6 z-score; in test [1] it was 2.47 z-score; in test [2] it was 2.08 z-score.
For TCCAGGGGGAAGTGCATGAC, in that order: 3.24 z-score, 3.45 z-score and 1.49 z-score.
Taken in the same sequence, the figures for TGAATGAGGAAGTGCAACCA were 6.31 z-score, 6.97 z-score and 2.72 z-score.
For the sequence CCCAAGAGGAAGTGGGTGGG, the results for the binding signal (with PU.1 (IVT); in test [1]; in test [2]) were 4.91 z-score, 5.8 z-score and 3.3 z-score, respectively.
Regarding TAAAAGAGGAAGTGCAACCA, the binding signal with PU.1 (IVT) turned out to be 8.29 z-score; in test [1], 7.67 z-score; in test [2], 4.91 z-score.
Turning to GAAAAAGGGAAGTGAGTTGT, the values for the binding signal (with PU.1 (IVT); in test [1]; in test [2]) were 7.63 z-score, 6.97 z-score and 3.62 z-score, respectively.
Take AGAAAAGGGAAGTGAGTTAC: the values for the binding signal (in the test with PU.1 (IVT); in test [1]; in test [2]) were 7.29 z-score, 6.95 z-score and 3.01 z-score, respectively.
Regarding AAAAGGAGGAAGTCCTTGCC, the binding signal with PU.1 (IVT) came out at 6.56 z-score; in test [1], 6.7 z-score; in test [2], 2.78 z-score.
Taken in the same sequence, the figures for ACGAGGAGGAAGTGGGGTAA were 4.31 z-score, 4.31 z-score and 2.83 z-score.
On to AGGAAGAGGAAGTGACAGAT, for which the binding signal in the test with PU.1 (IVT) was found to be 6.27 z-score; in test [1] it was 6.54 z-score; in test [2] it was 3.78 z-score.
For CAAAAGAGGAAGTCAGAGAG, in that order: 7.94 z-score, 7.23 z-score and 4.27 z-score.
